Data reported in publication PMC6919601, “Identification of Plasmodium dipeptidyl aminopeptidase allosteric inhibitors by high throughput screening” (PLoS ONE, 2019).
Several values for one entry are separate records, joined by “and”; a condition that tells them apart may be missing. Equal values may be shown once. Among all 110,000 compounds or so, about 230 (0.21%) showed an effect of 50% or more. The list shows a part of the results.

Each compound was assayed against DPAP1 (Plasmodium falciparum, UniProt Q8IIJ9) (assay: primary screen, percent inhibition; read by cleavage of a fluorogenic dipeptide substrate; higher = more effect of the substance).
DPAP1, sequence (Q8IIJ9 whole entry, looked up): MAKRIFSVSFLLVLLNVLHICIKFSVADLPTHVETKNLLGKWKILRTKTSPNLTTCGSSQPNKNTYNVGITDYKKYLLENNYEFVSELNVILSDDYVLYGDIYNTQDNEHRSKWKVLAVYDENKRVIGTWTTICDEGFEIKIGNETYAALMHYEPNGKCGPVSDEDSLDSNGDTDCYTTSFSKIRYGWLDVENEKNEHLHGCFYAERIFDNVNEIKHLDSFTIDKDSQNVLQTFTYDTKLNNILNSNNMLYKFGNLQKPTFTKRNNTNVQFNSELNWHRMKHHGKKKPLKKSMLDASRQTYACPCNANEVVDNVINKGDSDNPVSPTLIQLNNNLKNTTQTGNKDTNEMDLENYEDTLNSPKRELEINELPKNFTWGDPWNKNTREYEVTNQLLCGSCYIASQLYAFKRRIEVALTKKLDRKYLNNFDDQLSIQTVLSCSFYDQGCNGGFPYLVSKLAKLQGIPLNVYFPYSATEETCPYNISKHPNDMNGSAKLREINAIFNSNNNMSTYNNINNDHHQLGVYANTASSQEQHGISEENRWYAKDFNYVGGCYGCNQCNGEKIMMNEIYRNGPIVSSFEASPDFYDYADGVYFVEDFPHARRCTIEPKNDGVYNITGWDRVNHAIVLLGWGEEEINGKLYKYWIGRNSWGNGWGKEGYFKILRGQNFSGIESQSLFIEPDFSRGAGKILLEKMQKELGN
Design: species or system P. falciparum D10 trophozoite lysates; single well
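Further: 30 min substrate incubation versus DMSO and 10 µM JCP410 controls.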

SMILES	% Inhibition @ 10 uM
CCCCc1ccc(C(=O)Nc2ccccc2O)cc1	-11%
COc1ccc(-c2ccc(C(=O)O)c(Cl)n2)cc1	2.08%
CCn1c(=O)c2c3c(sc2n2c(SCc4ccc(OC)cc4)nnc12)CCCC3	-3.13%
Cc1cc(C)c(/C=C(\C#N)C(N)=O)c(C)c1	6.49%
Cc1cc(C)c(S(=O)(=O)NC2CCSC2=O)c(C)c1 (stereo not shown)	0.135%
Cc1ccc(C2NC(=O)c3ccccc3O2)cc1 (stereo not shown)	-5.42%
CCCCNC(=O)OCCNS(=O)(=O)c1cccc([N+](=O)[O-])c1	-4.02%
CC(c1ccc(C2CCCC2)cc1)N(C)C (stereo not shown)	0.658%
CC(C)N(CCCNC(=O)C1CCN(c2nnc(N3CCCC3=O)s2)CC1)Cc1ccccc1	5.42%
CC(C)(C)NCCOc1cccc(Cl)c1Cl	2.16%
CC1(C)CC2=NC3=C(C(=O)CC(C)(C)C3)C(c3cccc(Br)c3)C2=C(O)C1 (stereo not shown)	-0.413%
CC1CCCC(NC2CC(=O)N(c3ccccc3)C2=O)C1C (stereo not shown)	5.94%
O=C(Nc1ccncc1)c1ccc(NS(=O)(=O)c2cccc(Cl)c2)cc1	2.17%
COc1cc2c(cc1OC)C(C(=O)NCc1cccnc1)C(c1cccs1)N(C)C2=O (stereo not shown)	4.06%
Cc1ccccc1-c1nc(CN2CCC(C(=O)NCc3cccs3)CC2)c(C)o1	-4.71%
COc1cccc2c(O)c(NC(=O)N3CCC(CO)CC3)cnc12	7.04%
CN1C(=O)/C(=C\c2cccc(O)c2)S/C1=N/c1ccccc1	-4.43%
CCOC(=O)c1ccc(COc2ccc(C(C)C)cc2)o1	0.413%
O=C(Nc1cccc2c1CCCC2)C1CCCCC1	4.22%
Cc1cc(C)c2c(n1)sc1c(N3CCN(Cc4ccc(Cl)cc4)CC3)ncnc12	1.72%
Cc1ccc2nc3c(cc(C(N)=O)c(=N)n3CCN3CCOCC3)c(=O)n2c1	3.6%
CC1CC(C)CN(C(=O)CSc2nnc(-c3ccco3)o2)C1 (stereo not shown)	-4.03%
COc1ccc2[nH]c(C)c(CCN3C(=O)C4CCCCC4C3=O)c2c1 (stereo not shown)	-3.34%
Cc1ccc(S(=O)(=O)N(C)c2ccc(C(=O)N3CCCCC3)cc2)cc1	-4.21%
CCn1cc(C(=O)Nc2cccc(Br)c2)c(C)n1	-3.12%

SMILES	% Inhibition @ 10 uM
COCCCNC(=O)NCc1cccn1Cc1ccccc1	3.64%
Cc1cc(CNC(=O)c2cc3ccccc3oc2=O)c2ccccc2n1	-5.96%
COc1ccc2[nH]c3c(=O)n(CCCCCC(=O)NCc4ccccc4OC)c(=S)[nH]c3c2c1	-0.431%
O=C(NC1CCCCC1)c1sc2ccccc2c1Cl	-6.22%
OC1CC2CCC(C1)N2CCOC(c1ccc(F)cc1)c1ccc(F)cc1 (stereo not shown)	0.343% and -2.29%
CC(C)CC(C(=O)NC1CCCCC1C)N1C(=O)c2ccccc2C1=O (stereo not shown)	4.47%
COc1ccccc1CNCc1ccc(C(F)(F)F)cc1	-7.02%
O=C1CC(N2CCN(c3ncccn3)CC2)C(=O)N1c1ccc(Br)cc1 (stereo not shown)	-3.12%
O=C(NCCc1ccc(F)cc1)C(=O)NC1CCCCC1	4.68%
CCc1ccc(C2C3=C(O)CC(c4ccccc4)CC3=NC(C)=C2C(=O)OCCOC)cc1 (stereo not shown)	-0.053%
COc1cccc(-c2nc(CS(=O)(=O)CC(=O)N3CCN(C4CCCCC4)CC3)c(C)o2)c1	1.55%
CCOC(=O)c1c(C)[nH]c(C)c1S(=O)(=O)N(C)Cc1ccccc1	-1.79%
C=CCOc1c(Br)cc(CNCC(C)O)cc1OC (stereo not shown)	-7.01%
CCc1ccccc1NC(=O)c1cccc(Br)c1	-7.06%
C=CCNCC(=O)Nc1sc2c(c1C(=O)OCC)CCCC2	-2.13%
COc1ccc(S(=O)(=O)C(CC(=O)c2ccccc2)c2ccccc2)cc1 (stereo not shown)	2.17%
O=C(CCc1ccccc1)Nc1nc2nc(-c3ccccc3)cc(O)n2n1	0.401%
O=C(O)C1CC(c2ccccc2)=NCCS1 (stereo not shown)	-0.0372%
COc1cc(OC)c(OC)cc1/C=c1\sc2nnc(-c3ccccc3C)n2c1=O	3.25%
COc1ccc(OC)c(N(CC(=O)Nc2cccc(Cl)c2)S(C)(=O)=O)c1	-7.61%
CCN1C(=O)/C(=C/c2ccc[nH]2)C(=O)NC1=S	1%
COc1ccc(/C=c2/[nH]c(=O)/c(=C\c3ccc(OC)c(OC)c3)[nH]c2=O)cc1OC	-0.736%
CN(C)c1ccc(CNC(C)(C)CO)cc1	-5.26%
CCOc1c(Br)cc(/C=C(\C#N)c2nc3cc(Br)cnc3[nH]2)cc1OC	-1.26%
